Test results from PubChem BioAssay (Tox21).
Where “and” joins values, the source holds several entries; their conditions need not be identical. Equal entries are not always repeated. Inconclusive results, whose numbers are uncertain, are shown with a selection of clear calls. For some assays here: Where the call is inconclusive, the potency comes from a doubtful curve fit. Some structures have more than one record in an assay (separate samples or runs), and their calls can disagree. Calls of active or inactive are those of the source. Unless noted, calls come from the whole dose curve; as a rule, active = well fitted curve in the direction sought with a large enough effect in the repeat runs; inconclusive = weak or mixed curves; inactive = no such curve, though single readings can be large; an effect the other way counts as inactive or inconclusive.

How the values were obtained:
[1] = qHTS assay to identify aromatase inhibitors - cell viability counter screen (AID 743084); details: MCF-7 aro ERE viability, CellTiter-Fluor, 24 h; activity change, negative = cytotoxicity: at 70.3 µM (top of the series);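 note: cells stimulated with testosterone during compound exposure; potency is the fitted concentration of half-maximal effect; nearly all actives have a fitted effect of over 55% in size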
[2] = qHTS assay to identify small molecule that activate the aryl hydrocarbon receptor (AhR) signaling pathway - cell viability counter screen (AID 743086); note: nearly all actives have a fitted effect of over 45% in size; note: potency is the fitted concentration of half-maximal effect;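 for viability change, negative = cytotoxic: HepG2 liver cells carrying the AhR DRE luciferase reporter; % is set by controls: 0 for no effect and ±100 for the full control effect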
How it was run: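 HepG2-AhR-luc (HG2L7.5c1) cells, 4000/well, were preincubated 5 h at 37C, exposed to compound in qHTS format for 24 hr at 37C, then given CellTiter-Fluor for 30 min; viability was read as fluorescence in the reporter wells.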

[3] = molecular target: Peroxisome proliferator-activated receptor gamma (Homo sapiens) (UniProt P37231); assay: qHTS assay to identify small molecule antagonists of the peroxisome proliferator-activated receptor gamma (PPARg) signaling pathway (AID 743191; calls by dose curve; note: nearly all actives have a fitted effect of over 30% in size; note: potency is the fitted concentration of half-maximal effect; for ratio activity, negative = inhibition: % is set by controls: 0 for no effect and ±100 for the full control effect); details: HEK293H PPARg-UAS-bla, beta-lactamase ratio, antagonist, 17 h
Sequence of UniProt P37231 (P37231 whole entry, looked up): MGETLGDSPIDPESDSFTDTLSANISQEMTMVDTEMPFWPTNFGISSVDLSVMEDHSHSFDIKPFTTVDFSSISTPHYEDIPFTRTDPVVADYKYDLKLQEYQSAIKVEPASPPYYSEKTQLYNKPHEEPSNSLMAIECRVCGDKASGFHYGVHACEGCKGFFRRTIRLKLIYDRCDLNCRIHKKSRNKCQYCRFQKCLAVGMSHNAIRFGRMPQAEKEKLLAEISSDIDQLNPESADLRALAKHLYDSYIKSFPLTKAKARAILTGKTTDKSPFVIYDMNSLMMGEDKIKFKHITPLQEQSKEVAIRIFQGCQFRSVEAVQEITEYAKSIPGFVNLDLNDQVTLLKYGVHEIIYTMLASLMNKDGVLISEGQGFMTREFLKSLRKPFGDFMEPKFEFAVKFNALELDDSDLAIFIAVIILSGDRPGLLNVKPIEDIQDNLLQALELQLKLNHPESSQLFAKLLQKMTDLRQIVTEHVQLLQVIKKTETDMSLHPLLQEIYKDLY
How it was run: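 GeneBLAzer PPARg UAS-bla HEK293H cells carrying a UAS-driven beta-lactamase reporter were plated at 3000 cells/well, preincubated 5 h at 37C, then given compound for 17 h at 37C; LiveBLAzer B/G FRET substrate was read after 1 h at room temperature.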

[4] = qHTS assay to identify small molecule antagonists of the peroxisome proliferator-activated receptor gamma (PPARg) signaling pathway - cell viability counter screen (AID 743194); details: PPARg-bla HEK293H viability, CellTiter-Glo luminescence, 17 h, co-treated with 50 nM rosiglitazone; activity change, negative = cytotoxicity: at 62.6 µM (top of the series); note: potency is the fitted concentration of half-maximal effect; nearly all actives have a fitted effect of over 55% in size
How it was run: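 PPARg-UAS-bla HEK293H cells were plated, rested 5 h at 37 C, then treated with compounds plus rosiglitazone (50 nM final) for 17 h at 37 C; viability was then read by CellTiter-Glo luminescence after 30 min at room temperature.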

[5] = qHTS assay for small molecule activators of the heat shock response signaling pathway - cell viability counter screen (AID 743209); details: HSE-bla HeLa viability, CellTiter-Glo luminescence, 5 h; activity change, negative = cytotoxicity: at 62.6 µM (top of the series); note: potency is the fitted concentration of half-maximal effect; nearly all actives have a fitted effect of over 50% in size
How it was run: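 CellSensor HSE-bla HeLa cells, plated overnight at 37 C/5% CO2, were exposed to compounds in DMSO for 5 h at 37 C. Viability was then read in the same wells by CellTiter-Glo luminescence after 30 min at room temperature.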

[6] = qHTS assay to identify small molecule agonists of the peroxisome proliferator-activated receptor delta (PPARd) signaling pathway - cell viability counter screen (AID 743211); details: PPARd-bla HEK293H viability, CellTiter-Glo luminescence, 17 h; activity change, negative = cytotoxicity: at 62.6 µM (top of the series); note: potency is the fitted concentration of half-maximal effect; nearly all actives have a fitted effect of over 55% in size
How it was run: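 Viability was measured as CellTiter-Glo luminescence (30 min, room temperature) in the same wells as the beta-lactamase readout. GeneBLAzer PPARd UAS-bla HEK293H cells received compound after 5 h plating and were incubated 17 h at 37 C.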

[7] = qHTS assay to identify small molecule antagonists of the peroxisome proliferator-activated receptor delta (PPARd) signaling pathway - cell viability counter screen (AID 743213); details: PPARd-bla HEK293H viability, CellTiter-Glo luminescence, 17 h; viability change, negative = cytotoxic: at 62 µM (top of the series) unless noted; note: nearly all actives have a fitted effect of over 50% in size; note: potency is the fitted concentration of half-maximal effect; for viability change, negative = cytotoxic: % is set by controls: 0 for no effect and ±100 for the full control effect
How it was run: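 PPARd-bla HEK293H cells (3000/well) got compound plus 300 nM L165041 agonist for 17 h at 37 C. Viability in the same wells came from CellTiter-Glo luminescence after 30 min at room temperature.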

[8] = molecular target: Bile acid receptor (Homo sapiens) (UniProt Q96RI1); assay: qHTS assay to identify small molecule antagonists of the farnesoid-X-receptor (FXR) signaling pathway (AID 743217; active = well fitted inhibition curve with a large enough effect in the signal ratio in the repeat runs, not every such curve was filed as active; inconclusive = weak or mixed curves, or effect the other way; inactive = no such curve, though single readings can be large or run the other way; the % refers to the signal ratio; note: potency is the fitted concentration of half-maximal effect); details: HEK293T FXR-UAS-bla, beta-lactamase ratio, CDCA-stimulated, 16 h; activity change, negative = inhibition: at 62.6 µM (top of the series) unless noted
Sequence of UniProt Q96RI1 (Q96RI1 whole entry, looked up): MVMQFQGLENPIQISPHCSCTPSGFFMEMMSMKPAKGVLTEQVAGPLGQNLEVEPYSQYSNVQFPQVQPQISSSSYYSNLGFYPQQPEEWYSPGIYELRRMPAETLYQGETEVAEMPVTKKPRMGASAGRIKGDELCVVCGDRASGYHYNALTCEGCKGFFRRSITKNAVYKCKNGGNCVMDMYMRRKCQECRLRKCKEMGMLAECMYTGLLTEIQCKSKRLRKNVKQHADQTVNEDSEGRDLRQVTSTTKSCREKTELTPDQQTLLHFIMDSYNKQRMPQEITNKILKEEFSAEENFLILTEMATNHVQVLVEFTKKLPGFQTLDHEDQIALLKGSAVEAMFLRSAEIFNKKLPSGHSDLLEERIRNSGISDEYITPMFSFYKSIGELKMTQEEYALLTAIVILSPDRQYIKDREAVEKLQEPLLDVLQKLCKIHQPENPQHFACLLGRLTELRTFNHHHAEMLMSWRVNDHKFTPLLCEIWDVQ
How it was run: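 FXR-UAS-bla HEK 293T cells pre-incubated 5 h at 37 °C, then exposed to compounds with chenodeoxycholic acid (50 uM final) for 16 h at 37 °C. Beta-lactamase reporter read by LiveBLAzer B/G FRET substrate fluorescence after 2 h at room temperature.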

[9] = qHTS assay to identify small molecule agonists of the farnesoid-X-receptor (FXR) signaling pathway - cell viability counter screen (AID 743218); details: FXR-bla HEK293T viability, CellTiter-Glo luminescence, 16 h; viability change, negative = cytotoxic: at 62.6 µM (top of the series) unless noted; note: potency is the fitted concentration of half-maximal effect; nearly all actives have a fitted effect of over 45% in size
How it was run: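 FXR-UAS-bla HEK 293T cells, plated 5 h at 37 C, were exposed to compounds for 16 h at 37 C. CellTiter-Glo was then added to the same wells as the bla readout; luminescence read after 30 min at room temperature.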

[10] = molecular target: Bile acid receptor (Homo sapiens) (UniProt Q96RI1); assay: qHTS assay to identify small molecule agonists of the farnesoid-X-receptor (FXR) signaling pathway (AID 743220; active = well fitted activation curve with a large enough effect in the signal ratio in the repeat runs, not every such curve was filed as active; inconclusive = weak or mixed curves, or effect the other way; the % refers to the signal ratio; note: potency is the fitted concentration of half-maximal effect); details: HEK293T FXR-UAS-bla, beta-lactamase FRET ratio, 16 h; activation: at 62.6 µM (top of the series) unless noted
How it was run: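 Beta-lactamase reporter under UAS control in GeneBLAzer FXR HEK 293T cells (5000/well) measured with LiveBLAzer FRET substrate after 2 h at room temperature. Compound exposure lasted 16 h at 37C.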

[11] = qHTS assay for small molecule agonists of the antioxidant response element (ARE) signaling pathway (AID 743202; active = well fitted activation curve with a large enough effect in the signal ratio in the repeat runs, not every such curve was filed as active; inconclusive = weak or mixed curves, or effect the other way; inactive = no such curve, though single readings can be large or run the other way; the % refers to the signal ratio; note: potency is the fitted concentration of half-maximal effect); details: HepG2 ARE-bla reporter, beta-lactamase FRET, 16 h; activation: at 73.3 µM (top of the series) unless noted
How it was run: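 Compounds delivered in DMSO to ARE-bla HepG2 cells (2,000 cells/well, pre-incubated 5 h) and left 16 h at 37 C. LiveBLAzer B/G FRET substrate then added for 2 h at RT before fluorescence reading.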

[12] = qHTS assay for small molecule agonists of the antioxidant response element (ARE) signaling pathway - cell viability counter screen (AID 743203; calls by dose curve; note: potency is the fitted concentration of half-maximal effect; nearly all actives have a fitted effect of over 55% in size); details: ARE-bla HepG2 viability, CellTiter-Glo luminescence, 16 h; viability change, negative = cytotoxic: at 73.3 µM (top of the series)
How it was run: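 CellSensor ARE-bla HepG2 cells, 2,000 per well, rested 5 hrs at 37C/5% CO2, then exposed to compound in DMSO for 16 hrs; viability read as CellTiter-Glo luminescence after 30 min at room temperature, in the reporter wells.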

[13] = qHTS assay for small molecule activators of the heat shock response signaling pathway (AID 743210; active = well fitted activation curve with a large enough effect in the signal ratio in the repeat runs, with a control signal flat, not every such curve was filed as active; inconclusive = weak or mixed curves; the % refers to the signal ratio; note: potency is the fitted concentration of half-maximal effect); details: HeLa HSE-bla reporter, beta-lactamase ratio, 5 h; activation: at 62.6 µM (top of the series)
How it was run: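 Reporter gene assay: HeLa cells stably bearing an HSE-bla construct, compound treatment 5 h at 37 C, LiveBLAzer substrate 2.5 h at RT, fluorescence intensity.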

[14] = molecular target: Vitamin D3 receptor (Homo sapiens) (UniProt P11473); assay: qHTS assay to identify small molecule agonists of the vitamin D receptor (VDR) signaling pathway (AID 743222; calls by dose curve; note: potency is the fitted concentration of half-maximal effect); details: HEK293T VDR-UAS-bla, beta-lactamase FRET ratio, 16 h; activation: at 63.5 µM (top of the series) unless noted
Sequence of UniProt P11473 (P11473 whole entry, looked up): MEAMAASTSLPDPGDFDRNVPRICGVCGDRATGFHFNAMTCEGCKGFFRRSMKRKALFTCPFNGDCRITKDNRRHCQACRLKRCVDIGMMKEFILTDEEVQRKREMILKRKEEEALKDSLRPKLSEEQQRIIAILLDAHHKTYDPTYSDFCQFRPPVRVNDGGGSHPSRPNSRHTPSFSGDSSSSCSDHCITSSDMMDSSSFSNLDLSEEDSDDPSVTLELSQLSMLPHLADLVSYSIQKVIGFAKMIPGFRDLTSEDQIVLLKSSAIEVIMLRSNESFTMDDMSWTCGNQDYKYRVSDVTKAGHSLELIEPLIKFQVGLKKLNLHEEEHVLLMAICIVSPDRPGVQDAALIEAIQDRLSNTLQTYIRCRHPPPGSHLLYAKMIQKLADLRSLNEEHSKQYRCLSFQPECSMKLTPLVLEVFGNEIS
How it was run: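 VDR-bla cells were plated 4 h at 37C/5% CO2, then exposed to compounds in DMSO for 16 h. After LiveBLAzer B/G FRET substrate addition and 2 h at room temperature, beta-lactamase reporter fluorescence was read.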

[15] = molecular target: Vitamin D3 receptor (Homo sapiens) (UniProt P11473); assay: qHTS assay to identify small molecule antagonists of the vitamin D receptor (VDR) signaling pathway (AID 743223; active = well fitted inhibition curve with a large enough effect in the signal ratio in the repeat runs, not every such curve was filed as active; inconclusive = weak or mixed curves, or effect the other way; inactive = no such curve, though single readings can be large or run the other way; the % refers to the signal ratio; note: potency is the fitted concentration of half-maximal effect); details: VDR-UAS-bla HEK293T, beta-lactamase FRET ratio, 16 h; activity change, negative = inhibition: at 61 µM (top of the series) unless noted
How it was run: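 Antagonist mode: compound added to VDR-bla cells alongside agonist 1alpha,25-dihydroxyvitamin D3 (3 nM final), incubation 16 h at 37C. Read-out is LiveBLAzer FRET fluorescence, 2 h at room temperature.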

[16] = molecular target: Peroxisome proliferator-activated receptor gamma (Homo sapiens) (UniProt P37231); assay: qHTS assay to identify small molecule agonists of the peroxisome proliferator-activated receptor gamma (PPARg) signaling pathway (AID 743094; active = well fitted activation curve with a large enough effect in the signal ratio in the repeat runs, not every such curve was filed as active; inconclusive = weak or mixed curves, or effect the other way; inactive = no such curve, though single readings can be large or run the other way; the % refers to the signal ratio; note: % is set by controls: 0 for no effect and ±100 for the full control effect); details: HEK293H PPARg-UAS-bla, beta-lactamase FRET ratio, 17 h; activation: at 57 µM (top of the series) unless noted
How it was run: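 GeneBLAzer PPARg UAS-bla HEK293H cells carrying a stably integrated beta-lactamase reporter were pre-incubated 5 h at 37C, then exposed to compounds in DMSO for 17 h at 37C; LiveBLAzer B/G FRET substrate was added for 1 h at room temperature and fluorescence read.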

[17] = molecular target: Peroxisome proliferator-activated receptor delta (Homo sapiens) (UniProt Q03181); assay: qHTS assay to identify small molecule antagonists of the peroxisome proliferator-activated receptor delta (PPARd) signaling pathway (AID 743215; active = well fitted inhibition curve with a large enough effect in the signal ratio in the repeat runs, not every such curve was filed as active; inconclusive = weak or mixed curves, or effect the other way; inactive = no such curve, though single readings can be large or run the other way; the % refers to the signal ratio;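 note: cells stimulated with agonist L165041 at 300 nM final during compound exposure; potency is the fitted concentration of half-maximal effect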); details: HEK293H PPARd-UAS-bla, beta-lactamase FRET ratio, antagonist, 17 h; ratio activity, negative = inhibition: at 62 µM (top of the series) unless noted
Sequence of UniProt Q03181 (Q03181 whole entry, looked up): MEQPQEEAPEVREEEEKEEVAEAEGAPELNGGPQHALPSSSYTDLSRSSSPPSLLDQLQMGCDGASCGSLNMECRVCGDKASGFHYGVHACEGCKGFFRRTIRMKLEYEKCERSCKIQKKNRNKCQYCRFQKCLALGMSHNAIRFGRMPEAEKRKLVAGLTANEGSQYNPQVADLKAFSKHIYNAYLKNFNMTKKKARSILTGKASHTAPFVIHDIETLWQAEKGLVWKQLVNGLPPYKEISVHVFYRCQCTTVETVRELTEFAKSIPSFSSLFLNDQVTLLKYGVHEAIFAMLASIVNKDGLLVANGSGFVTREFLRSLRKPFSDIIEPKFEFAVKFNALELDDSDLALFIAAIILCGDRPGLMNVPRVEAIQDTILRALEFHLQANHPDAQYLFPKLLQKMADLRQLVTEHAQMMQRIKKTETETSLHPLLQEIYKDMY
How it was run: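 PPARd UAS-bla HEK293H cells were pre-incubated 5 h at 37 C, then given test compounds in DMSO plus agonist L165041 (300 nM final). After 17 h at 37 C, beta-lactamase FRET substrate was added; fluorescence read after 2 h at room temperature.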

[18] = qHTS assay to identify small molecule antagonists of the farnesoid-X-receptor (FXR) signaling pathway - cell viability counter screen (AID 743221; active = well fitted cell-killing curve with a large enough effect in the repeat runs, not every such curve was filed as active; inconclusive = weak or mixed curves, or effect the other way; inactive = no such curve, though single readings can be large or run the other way; note: potency is the fitted concentration of half-maximal effect; nearly all actives have a fitted effect of over 50% in size); details: FXR-bla HEK293T viability, CellTiter-Glo luminescence, 16 h; activity change, negative = cytotoxicity: at 62.6 µM (top of the series)
How it was run: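 Cytotoxicity counter screen run in the FXR-bla reporter wells: HEK 293T cells exposed to compound with 50 uM (final) chenodeoxycholic acid for 16 h, 37 C, then viability measured by CellTiter-Glo luminescence after 30 min, room temperature.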

[19] = ratio activity, negative = inhibition: at 62.6 µM (top of the series) unless noted
Tags give direction and shape of the fitted curve or compound fluorescence and quenching.

## CN(C)c1ccc2nc3ccc(=[N+](C)C)cc-3sc2c1
[1]
  Potency: active: 23.7 µM and active: 13.1 µM and inconclusive: 54.5 µM [cytotoxic, partial curve]
[2]
  Potency: active: 9.44 µM and active: 16.6 µM and active: 27.3 µM
[3]; at 62.6 µM (top of the series)
  ratio activity, negative = inhibition: inactive: 14.5%
[3]; [19]
  Potency: active: 43.6 µM
  ratio activity, negative = inhibition: inconclusive: -61.4%
[4]
  Potency: inconclusive: 26.5 µM [cytotoxic, single point] and inconclusive: 49 µM [cytotoxic, partial curve, poor fit]
[5]
  Potency: active: 54.9 µM
[6]
  Potency: inconclusive: 11.9 µM [cytotoxic, partial curve]
[7]
  Potency: active: 49 µM
  viability change, negative = cytotoxic: inconclusive: -31.6% [cytotoxic]
[8]
  Potency: active: 8.37 µM and active: 21.9 µM and active: 8.41 µM
[9]
  Potency: inconclusive: 54.9 µM [cytotoxic, single point]
[10]
  Potency: inconclusive: 13.3 µM [falling, partial curve]

## O=C(Cl)c1cc(C(=O)Cl)cc(C(=O)Cl)c1
[1]
  Potency: inconclusive: 68.6 µM [cytotoxic, single point]
[2]
  Potency: inactive
[3]; [19]
  Potency: inactive
[11]
  Potency: inconclusive: 68.6 µM [falling, single point]
[12]
  Potency: inconclusive: 68.6 µM [cytotoxic, single point]
[13]
  Potency: inconclusive: 59.3 µM [activator]
[14]
  Potency: inconclusive: 54.9 µM [rising, single point]
[15]
  activity change, negative = inhibition: inconclusive: -2.1%

## OCCN1CCN(CCCN2c3ccccc3Sc3ccc(C(F)(F)F)cc32)CC1
[1]
  Potency: inconclusive: 33.5 µM [cytotoxic, single point]
[2]
  Potency: inconclusive: 21.1 µM [falling, partial curve]
[16]
  activation: inconclusive: -18.8%
[4]
  Potency: inconclusive: 13.3 µM [cytotoxic, partial curve]
[11]
  Potency: inconclusive: 33.5 µM
[6]
  Potency: active: 26.6 µM
[7]
  Potency: active: 11.9 µM
[17]
  Potency: inconclusive: 26.6 µM
[9]
  Potency: active: 29.8 µM
[18]
  Potency: inconclusive: 13.3 µM [falling, full curve]
[15]
  Potency: inconclusive: 0.425 µM [rising, full curve, poor fit]
